Measurements: US20240392004A1 (IMMUNOWAKE, published 2024)

T1: human IL-2 receptor (IL-2Rα, IL-2Rβ, IL-2Rγ) (human, UniProt P01589 22-272; P14784 27-551; P31785 23-369)
T1 sequence (looked up) 1: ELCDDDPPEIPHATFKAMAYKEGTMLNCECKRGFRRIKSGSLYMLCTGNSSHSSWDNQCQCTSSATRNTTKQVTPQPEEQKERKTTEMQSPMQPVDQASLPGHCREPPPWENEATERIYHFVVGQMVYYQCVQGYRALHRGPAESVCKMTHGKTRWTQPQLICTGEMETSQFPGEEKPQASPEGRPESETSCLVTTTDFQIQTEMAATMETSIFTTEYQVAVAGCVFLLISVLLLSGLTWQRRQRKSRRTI
T1 sequence (looked up) 2: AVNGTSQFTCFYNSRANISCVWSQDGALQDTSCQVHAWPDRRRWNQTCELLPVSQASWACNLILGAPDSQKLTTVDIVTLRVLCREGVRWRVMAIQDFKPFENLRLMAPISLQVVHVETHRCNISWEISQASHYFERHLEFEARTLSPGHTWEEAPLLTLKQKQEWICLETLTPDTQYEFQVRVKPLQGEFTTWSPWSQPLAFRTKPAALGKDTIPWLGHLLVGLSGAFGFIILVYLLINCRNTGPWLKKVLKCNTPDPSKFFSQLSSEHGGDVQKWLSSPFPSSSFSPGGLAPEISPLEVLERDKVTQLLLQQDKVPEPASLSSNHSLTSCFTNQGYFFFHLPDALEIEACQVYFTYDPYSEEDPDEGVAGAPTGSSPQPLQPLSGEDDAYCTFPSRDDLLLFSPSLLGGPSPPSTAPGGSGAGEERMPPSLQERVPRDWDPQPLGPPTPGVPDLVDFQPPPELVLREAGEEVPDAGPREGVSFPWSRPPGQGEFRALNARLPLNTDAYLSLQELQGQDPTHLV
T1 sequence (looked up) 3: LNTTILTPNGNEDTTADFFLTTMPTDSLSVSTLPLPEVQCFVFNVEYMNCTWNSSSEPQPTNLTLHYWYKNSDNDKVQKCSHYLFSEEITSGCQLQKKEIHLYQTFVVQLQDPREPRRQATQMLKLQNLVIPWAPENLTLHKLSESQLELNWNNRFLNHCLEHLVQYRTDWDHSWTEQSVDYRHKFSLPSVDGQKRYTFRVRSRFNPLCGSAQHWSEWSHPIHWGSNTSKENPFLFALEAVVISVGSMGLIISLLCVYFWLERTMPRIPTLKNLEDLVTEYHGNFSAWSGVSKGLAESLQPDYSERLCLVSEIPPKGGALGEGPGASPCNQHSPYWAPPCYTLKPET


Tests used:
Assay in all cases: cell-based or functional assay
[1] = biological target: T1, human IL-2 receptor (IL-2Rα, IL-2Rβ, …)
[2] = biological target: human PD-1 on cells (HEK-PD-1 reporter cells; activated PBMC) (human, UniProt Q15116 25-288)
[3] = biological target: human IL-12 receptor complex (IL-12Rβ1 and IL-12Rβ2) (human, UniProt P42701 24-662; Q99665 24-862)

Sequence of UniProt Q15116 (Q15116 25-288): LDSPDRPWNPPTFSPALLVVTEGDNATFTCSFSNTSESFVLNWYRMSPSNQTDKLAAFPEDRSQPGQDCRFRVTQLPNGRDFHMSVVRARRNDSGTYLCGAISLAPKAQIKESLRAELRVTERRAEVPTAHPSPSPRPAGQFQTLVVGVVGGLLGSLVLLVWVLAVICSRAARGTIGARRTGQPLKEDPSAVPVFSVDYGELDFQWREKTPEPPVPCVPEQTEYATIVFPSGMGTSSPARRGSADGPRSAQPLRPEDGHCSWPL

Row | Percent IL-2 signal transduction (HEK-IL-2 reporter assay) [1] [%] | Percent IL-2 signal transduction (HEK-PD-1-IL-2 reporter assay) [2] [%] | Biological activity of IL-12, HEK-PD-1-IL-12 reporter assay, % of rIL-12 [3] [%] | Binder
1 | 0 | 0 | – | parental PD-L2-Fc fusion protein (Fc fusion) LFTVTVPKELYIIEHGSNVTLECNFDTGSHVNLGAITASLQKVENDTSPHRERATLLEEQLPLGKASFHIPQVQVRDEGQYQCIIIYGVAWDYKYLTLKVKASYRKINTHILKVPETDEVELTCQATGYPLAEVSWPNVSVPANTSHSRTPEGLYQVTSVLRLKPPPGRNFSCVFWNTHVRELTLASIDLQSQMEPRTHPT[omitted - human IgG1 Fc with changes]
2 | – | – | 2.3 | CTLA-4-Fc/IL-12(F60A) immunomodulatory molecule (IL-12 at C-terminus) (Fc fusion) chain 1: [omitted - about 120 residues][omitted - about 250 residues] chain 2: [omitted - about 120 residues]SGDKTHTCPPCPAPEDEGGPSVFLFPPKPKDTLMISRTPEVTCVVVDVSHEDPEVKFNWYVDGVEVHNAKTKPREEQYNSTYRVVSVLTVLHQDWLNGKEYKCKVSNKALPAPIEKTISKAKGQPREPQVYVYPPSREEMTKNQVSLTCLVKGFYPSDIAVEWESNGQPENNYKTTPPVLDEDGSFALVSKLTVDKSRWQQGNVFSCSVMHEALHNHYTQKSLSLSPGKGGGGSGGGGSGGGGSIWELKKDVYVVELDWYPDAPGEMVVLTCDTPEEDGITWTLDQSSEVLGSGKTLTIQVKEAGDAGQYTCHKGGEVLSHSLLLLHKKEDGIWSTDILKDQKEPKNKTFLRCEAKNYSGRFTCWWLTTISTDLTFSVKSSRGSSDPQGVTCGAATLSAERVRGDNKEYEYSVECQEDSACPAAEESLPIEVMVDAVHKLKYENYTSSFFIRDIIKPDPPKNLQLKPLKNSRQVEVSWEYPDTWSTPHSYFSLTFCVQVQGKSKREKKDRVFTDKTSATVICRKNASISVRAQDRYYSSSWSEWASVPCSGGGGSGGGGSGGGGSGGGGSGRNLPVATPDPGMFPCLHHSQNLLRAVSNMLQKARQTLEFYPCTSEEIDHEDITKDKTSTVEACLPLELTKNESCLNSRETSFITNGSCLASRKTSFMMALCLSSIYEDLKMYQVEFKTMNAKLLMDPKRQIFLDQNMLAVIDELMQALNFNSETVPQKSSLEEPDFYKTKIKLCILLHAFRIRAVTIDRVMSYLNAS
3 | – | – | 0.3 | IL-12(E59A/F60A)/CTLA-4-Fc immunomodulatory molecule (IL-12 at hinge) (Fc fusion) chain 1: [omitted - about 120 residues][omitted - about 250 residues] chain 2: [omitted - about 120 residues]SGIWELKKDVYVVELDWYPDAPGEMVVLTCDTPEEDGITWTLDQSSEVLGSGKTLTIQVKAAGDAGQYTCHKGGEVLSHSLLLLHKKEDGIWSTDILKDQKEPKNKTFLRCEAKNYSGRFTCWWLTTISTDLTFSVKSSRGSSDPQGVTCGAATLSAERVRGDNKEYEYSVECQEDSACPAAEESLPIEVMVDAVHKLKYENYTSSFFIRDIIKPDPPKNLQLKPLKNSRQVEVSWEYPDTWSTPHSYFSLTFCVQVQGKSKREKKDRVFTDKTSATVICRKNASISVRAQDRYYSSSWSEWASVPCSGGGGSGGGGSGGGGSGGGGSGRNLPVATPDPGMFPCLHHSQNLLRAVSNMLQKARQTLEFYPCTSEEIDHEDITKDKTSTVEACLPLELTKNESCLNSRETSFITNGSCLASRKTSFMMALCLSSIYEDLKMYQVEFKTMNAKLLMDPKRQIFLDQNMLAVIDELMQALNFNSETVPQKSSLEEPDFYKTKIKLCILLHAFRIRAVTIDRVMSYLNASDKTHTCPPCPAPEDEGGPSVFLFPPKPKDTLMISRTPEVTCVVVDVSHEDPEVKFNWYVDGVEVHNAKTKPREEQYNSTYRVVSVLTVLHQDWLNGKEYKCKVSNKALPAPIEKTISKAKGQPREPQVYVYPPSREEMTKNQVSLTCLVKGFYPSDIAVEWESNGQPENNYKTTPPVLDEDGSFALVSKLTVDKSRWQQGNVFSCSVMHEALHNHYTQKSLSLSPGK
4 | – | – | 0.2 | IL-12(F60A)/CTLA-4-Fc immunomodulatory molecule (IL-12 at hinge) (Fc fusion) chain 1: [omitted - about 120 residues][omitted - about 250 residues] chain 2: [omitted - about 120 residues]SGIWELKKDVYVVELDWYPDAPGEMVVLTCDTPEEDGITWTLDQSSEVLGSGKTLTIQVKEAGDAGQYTCHKGGEVLSHSLLLLHKKEDGIWSTDILKDQKEPKNKTFLRCEAKNYSGRFTCWWLTTISTDLTFSVKSSRGSSDPQGVTCGAATLSAERVRGDNKEYEYSVECQEDSACPAAEESLPIEVMVDAVHKLKYENYTSSFFIRDIIKPDPPKNLQLKPLKNSRQVEVSWEYPDTWSTPHSYFSLTFCVQVQGKSKREKKDRVFTDKTSATVICRKNASISVRAQDRYYSSSWSEWASVPCSGGGGSGGGGSGGGGSGGGGSGRNLPVATPDPGMFPCLHHSQNLLRAVSNMLQKARQTLEFYPCTSEEIDHEDITKDKTSTVEACLPLELTKNESCLNSRETSFITNGSCLASRKTSFMMALCLSSIYEDLKMYQVEFKTMNAKLLMDPKRQIFLDQNMLAVIDELMQALNFNSETVPQKSSLEEPDFYKTKIKLCILLHAFRIRAVTIDRVMSYLNASDKTHTCPPCPAPEDEGGPSVFLFPPKPKDTLMISRTPEVTCVVVDVSHEDPEVKFNWYVDGVEVHNAKTKPREEQYNSTYRVVSVLTVLHQDWLNGKEYKCKVSNKALPAPIEKTISKAKGQPREPQVYVYPPSREEMTKNQVSLTCLVKGFYPSDIAVEWESNGQPENNYKTTPPVLDEDGSFALVSKLTVDKSRWQQGNVFSCSVMHEALHNHYTQKSLSLSPGK
